{"source": "paper PMC3519786", "about": "“Novel Interactions between FOXM1 and CDC25A Regulate the Cell Cycle” (PLoS ONE, 2012)", "experiment_in_all_cases": "two-hybrid; mammalian two-hybrid (Checkmate, Promega) in U2OS; bait pBIND (GAL4 DNA-binding domain)-FOXM1, prey pACT (VP16 activation domain)-CDC25A, reporter pG5-luc; firefly normalised to Renilla luciferase; 2 days", "key": {"GAL4-FOXM1 (human)": {"biological_target": "T1, GAL4-FOXM1 (human) (UniProt Q08050)", "T1 sequence": "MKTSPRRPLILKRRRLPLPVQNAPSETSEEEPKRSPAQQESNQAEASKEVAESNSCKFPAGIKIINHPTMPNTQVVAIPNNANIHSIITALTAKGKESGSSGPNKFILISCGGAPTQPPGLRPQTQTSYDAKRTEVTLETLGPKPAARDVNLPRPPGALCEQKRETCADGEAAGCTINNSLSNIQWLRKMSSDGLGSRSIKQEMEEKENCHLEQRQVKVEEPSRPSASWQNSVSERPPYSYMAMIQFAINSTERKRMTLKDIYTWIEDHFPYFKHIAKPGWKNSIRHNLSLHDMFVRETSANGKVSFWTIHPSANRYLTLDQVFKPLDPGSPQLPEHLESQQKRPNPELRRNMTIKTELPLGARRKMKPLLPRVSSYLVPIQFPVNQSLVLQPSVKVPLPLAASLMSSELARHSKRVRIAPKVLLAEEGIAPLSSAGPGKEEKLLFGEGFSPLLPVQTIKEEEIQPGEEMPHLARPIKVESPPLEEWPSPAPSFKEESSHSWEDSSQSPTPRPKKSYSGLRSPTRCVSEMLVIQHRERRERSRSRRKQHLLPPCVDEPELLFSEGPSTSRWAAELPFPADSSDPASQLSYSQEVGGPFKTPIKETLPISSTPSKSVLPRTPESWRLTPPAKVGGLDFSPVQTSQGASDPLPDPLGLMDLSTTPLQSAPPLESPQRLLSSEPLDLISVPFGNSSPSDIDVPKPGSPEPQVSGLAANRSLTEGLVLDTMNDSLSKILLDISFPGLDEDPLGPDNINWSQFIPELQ"}, "[1]": {"biological_target": "T2, GAL4-FOXM1 N-terminal fragment (amino acids 1-235) (human) (UniProt Q08050)", "T2 sequence": "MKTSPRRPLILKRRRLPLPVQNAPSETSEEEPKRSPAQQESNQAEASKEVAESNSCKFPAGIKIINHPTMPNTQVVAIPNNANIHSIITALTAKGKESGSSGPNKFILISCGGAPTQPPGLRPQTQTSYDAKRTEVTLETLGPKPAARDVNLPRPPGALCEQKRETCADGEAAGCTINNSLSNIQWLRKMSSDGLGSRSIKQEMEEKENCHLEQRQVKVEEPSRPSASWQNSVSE"}, "GAL4-FOXM1 T611A (human)": {"biological_target": "T3, GAL4-FOXM1 T611A (human) (UniProt Q08050)", "T3 sequence": "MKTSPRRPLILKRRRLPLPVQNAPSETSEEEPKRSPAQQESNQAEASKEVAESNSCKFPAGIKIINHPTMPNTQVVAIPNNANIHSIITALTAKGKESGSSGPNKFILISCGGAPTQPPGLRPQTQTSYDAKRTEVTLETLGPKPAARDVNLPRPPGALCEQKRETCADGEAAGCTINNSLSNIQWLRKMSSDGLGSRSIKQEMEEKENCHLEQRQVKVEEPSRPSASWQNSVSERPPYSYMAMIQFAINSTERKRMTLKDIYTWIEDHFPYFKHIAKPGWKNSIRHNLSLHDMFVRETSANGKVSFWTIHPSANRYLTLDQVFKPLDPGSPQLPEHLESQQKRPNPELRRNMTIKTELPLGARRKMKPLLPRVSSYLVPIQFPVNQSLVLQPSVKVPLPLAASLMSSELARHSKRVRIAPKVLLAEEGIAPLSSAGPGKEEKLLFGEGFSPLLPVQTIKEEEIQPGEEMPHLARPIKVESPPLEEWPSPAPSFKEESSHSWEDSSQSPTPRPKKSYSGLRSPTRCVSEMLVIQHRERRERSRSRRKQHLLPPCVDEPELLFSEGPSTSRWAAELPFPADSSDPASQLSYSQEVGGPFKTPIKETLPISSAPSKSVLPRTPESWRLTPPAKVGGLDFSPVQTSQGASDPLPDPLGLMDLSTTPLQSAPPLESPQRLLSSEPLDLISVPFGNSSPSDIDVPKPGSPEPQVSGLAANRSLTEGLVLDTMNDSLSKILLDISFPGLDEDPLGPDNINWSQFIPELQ"}, "GAL4-FOXM1 T620A (human)": {"biological_target": "T4, GAL4-FOXM1 T620A (human) (UniProt Q08050)", "T4 sequence": "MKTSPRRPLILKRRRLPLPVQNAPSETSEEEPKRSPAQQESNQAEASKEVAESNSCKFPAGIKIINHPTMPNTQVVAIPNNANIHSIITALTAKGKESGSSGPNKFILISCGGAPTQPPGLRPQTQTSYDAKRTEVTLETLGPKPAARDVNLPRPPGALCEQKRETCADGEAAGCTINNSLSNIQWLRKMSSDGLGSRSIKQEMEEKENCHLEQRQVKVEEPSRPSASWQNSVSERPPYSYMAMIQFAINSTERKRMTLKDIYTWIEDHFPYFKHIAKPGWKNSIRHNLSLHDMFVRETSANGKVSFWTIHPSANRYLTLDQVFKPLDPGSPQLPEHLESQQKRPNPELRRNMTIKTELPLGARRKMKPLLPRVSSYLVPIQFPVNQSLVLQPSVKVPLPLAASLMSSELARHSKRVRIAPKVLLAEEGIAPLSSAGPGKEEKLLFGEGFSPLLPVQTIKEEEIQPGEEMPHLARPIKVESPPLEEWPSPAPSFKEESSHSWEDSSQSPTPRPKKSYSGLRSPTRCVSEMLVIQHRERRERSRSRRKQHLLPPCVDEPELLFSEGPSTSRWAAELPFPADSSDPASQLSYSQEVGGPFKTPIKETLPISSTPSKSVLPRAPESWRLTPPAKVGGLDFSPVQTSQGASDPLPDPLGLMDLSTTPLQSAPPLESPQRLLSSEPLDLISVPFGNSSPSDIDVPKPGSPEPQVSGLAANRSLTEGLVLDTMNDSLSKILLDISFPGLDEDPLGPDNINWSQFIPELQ"}}, "note": "No constants are given. Whether binding was seen depends on the method and setting. Some entries that bind do so weakly or less than the wild type."}
{"binder": "VP16-CDC25A (natural protein, UniProt P30304 1-524, looked up, CDC25A (cell division cycle 25A) dual phosphatase; plasmid bought from Origene; also called pACT-CDC25A; wild-type CDC25A; source: mammalian two-hybrid fusion, U2OS, transfected) MELGPEPPHRRRLLFACSPPPASQPVVKALFGASAAGGLSPVTNLTVTMDQLQGLGSDYEQPLEVKNNSNLQRMGSSESTDSGFCLDSPGPLDSKENLENPMRRIHSLPQKLLGCSPALKRSHSDSLDHDIFQLIDPDENKENEAFEFKKPVRPVSRGCLHSHGLQEGKDLFTQRQNSAPARMLSSNERDSSEPGNFIPLFTPQSPVTATLSDEDDGFVDLLDGENLKNEEETPSCMASLWTAPLVMRTTNLDNRCKLFDSPSLCSSSTRSVLKRPERSQEESPPGSTKRRKSMSGASPKESTNPEKAHETLHQSLSLASSPKGTIENILDNDPRDLIGDFSKGYLFHTVAGKHQDLKYISPEIMASVLNGKFANLIKEFVIIDCRYPYEYEGGHIKGAVNLHMEEEVEDFLLKKPIVPTDGKRVIVVFHCEFSSERGPRMCRYVRERDRLGNEYPKLHYPELYVLKGGYKEFFMKCQSYCEPPSYRPMHHEDFKEDLKKFRTKSRTWAGEKSKREMYSRLKKL", "values": [{"measurement": "binding", "setting": "GAL4-FOXM1 (human)", "result": "binds"}, {"measurement": "binding", "setting": "[1]", "result": "no binding"}, {"measurement": "binding", "setting": "GAL4-FOXM1 T611A (human)", "result": "binds"}, {"measurement": "binding", "setting": "GAL4-FOXM1 T620A (human)", "result": "binds"}]}
